Data reported in the supplement of paper PMC8728848.
The list shows a part of the results.

Experiments:
Assay in all cases: glycan array binding signal (z-score within array); higher = stronger binding
Details in all cases: glycan notation: IUPAC condensed, linker removed
Gal(a1-3)Gal(b1-4)GlcNAc = target: Gal(a1-3)Gal(b1-4)GlcNAc
How it was run: (§1)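 The binding signal is a Z-score computed within each array and averaged over linkers. Arrays of the same protein sequence at different concentrations or buffers were also averaged together. Data originate from 3228 arrays in the Consortium for Functional Glycomics database, kept only where the protein sequence was available.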

[1] = target: Gal(a1-3)Gal(b1-4)GlcNAc(b1-2)Man
How it was run: as §1

[2] = target: Gal(a1-3)Gal(b1-4)GlcNAc(b1-2)Man(a1-3)[Gal(a1-3)Gal(b1-4)GlcNAc(b1-2)Man(a1-6)]Man(b1-4)GlcNAc(b1-4)GlcNAc
How it was run: as §1

[3] = target: Gal(a1-3)Gal(b1-4)GlcNAc(b1-3)GalNAc
How it was run: as §1

[4] = target: Gal(a1-3)Gal(b1-4)GlcNAc(b1-6)GalNAc
How it was run: as §1

[5] = target: Gal(a1-3)Gal(b1-4)[Fuc(a1-3)]GlcNAc
How it was run: as §1

[6] = target: Gal(a1-3)Gal(b1-4)[Fuc(a1-3)]GlcNAc(b1-2)Man(a1-3)[Gal(a1-3)Gal(b1-4)[Fuc(a1-3)]GlcNAc(b1-2)Man(a1-6)]Man(b1-4)GlcNAc(b1-4)GlcNAc
How it was run: as §1

Gal(a1-3)GalNAc = target: Gal(a1-3)GalNAc
How it was run: as §1

[7] = target: Gal(a1-3)[Gal(a1-4)]Gal(b1-4)GlcNAc
How it was run: as §1

[8] = target: Gal(a1-4)Gal(b1-3)GlcNAc(b1-2)Man(a1-3)[Gal(a1-4)Gal(b1-3)GlcNAc(b1-2)Man(a1-6)]Man(b1-4)GlcNAc(b1-4)GlcNAc
How it was run: as §1

Gal(a1-4)Gal(b1-4)Glc = target: Gal(a1-4)Gal(b1-4)Glc
How it was run: as §1

Gal(a1-4)Gal(b1-4)GlcNAc = target: Gal(a1-4)Gal(b1-4)GlcNAc
How it was run: as §1

[9] = target: Gal(a1-4)Gal(b1-4)GlcNAc(b1-2)Man(a1-3)[Gal(a1-4)Gal(b1-4)GlcNAc(b1-2)Man(a1-6)]Man(b1-4)GlcNAc(b1-4)GlcNAc
How it was run: as §1

[10] = target: Gal(a1-4)Gal(b1-4)GlcNAc(b1-3)Gal(b1-4)Glc
How it was run: as §1

Gal(a1-4)GlcNAc = target: Gal(a1-4)GlcNAc
How it was run: as §1

Gal(a1-6)Glc = target: Gal(a1-6)Glc
How it was run: as §1

Gal(b1-2)Gal = target: Gal(b1-2)Gal
How it was run: as §1

Gal(b1-3)Gal = target: Gal(b1-3)Gal
How it was run: as §1

Gal(b1-3)Gal(b1-4)GlcNAc = target: Gal(b1-3)Gal(b1-4)GlcNAc
How it was run: as §1

Gal(b1-3)GalNAc = target: Gal(b1-3)GalNAc
How it was run: as §1

[11] = target: Gal(b1-3)GalNAc(a1-3)[Fuc(a1-2)]Gal(b1-4)Glc
How it was run: as §1

[12] = target: Gal(b1-3)GalNAc(a1-3)[Fuc(a1-2)]Gal(b1-4)GlcNAc
How it was run: as §1

Gal(b1-3)GalNAc(b1-3)Gal = target: Gal(b1-3)GalNAc(b1-3)Gal
How it was run: as §1

[13] = target: Gal(b1-3)GalNAc(b1-3)Gal(a1-4)Gal(b1-4)Glc
How it was run: as §1

[14] = target: Gal(b1-3)GalNAc(b1-4)Gal(b1-4)Glc
How it was run: as §1

[15] = target: Gal(b1-3)GalNAc(b1-4)[Neu5Ac(a2-3)]Gal(b1-4)Glc
How it was run: as §1

Gal(b1-3)GlcNAc = target: Gal(b1-3)GlcNAc
How it was run: as §1

[16] = target: Gal(b1-3)GlcNAc(a1-3)Gal(b1-4)GlcNAc
How it was run: as §1

[17] = target: Gal(b1-3)GlcNAc(a1-6)Gal(b1-4)GlcNAc
How it was run: as §1

Gal(b1-3)GlcNAc(b1-2)Man = target: Gal(b1-3)GlcNAc(b1-2)Man
How it was run: as §1

[18] = target: Gal(b1-3)GlcNAc(b1-2)Man(a1-3)[Gal(b1-3)GlcNAc(b1-2)Man(a1-6)]Man(b1-4)GlcNAc(b1-4)GlcNAc
How it was run: as §1

[19] = target: Gal(b1-3)GlcNAc(b1-2)Man(a1-3)[Gal(b1-3)GlcNAc(b1-2)Man(a1-6)]Man(b1-4)GlcNAc(b1-4)[Fuc(a1-6)]GlcNAc
How it was run: as §1

[20] = target: Gal(b1-3)GlcNAc(b1-2)Man(a1-3)[GlcNAc(b1-4)][Gal(b1-3)GlcNAc(b1-2)Man(a1-6)]Man(b1-4)GlcNAc(b1-4)GlcNAc
How it was run: as §1

[21] = target: Gal(b1-3)GlcNAc(b1-2)[Gal(b1-3)GlcNAc(b1-6)]Man(a1-6)[Gal(b1-3)GlcNAc(b1-2)Man(a1-3)]Man(b1-4)GlcNAc(b1-4)GlcNAc
How it was run: as §1

[22] = target: Gal(b1-3)GlcNAc(b1-3)Gal(b1-3)GlcNAc
How it was run: as §1

[23] = target: Gal(b1-3)GlcNAc(b1-3)Gal(b1-4)Glc
How it was run: as §1

[24] = target: Gal(b1-3)GlcNAc(b1-3)Gal(b1-4)GlcNAc
How it was run: as §1

[25] = target: Gal(b1-3)GlcNAc(b1-3)Gal(b1-4)GlcNAc(b1-2)Man(a1-3)[Gal(b1-3)GlcNAc(b1-3)Gal(b1-4)GlcNAc(b1-2)Man(a1-6)]Man(b1-4)GlcNAc(b1-4)GlcNAc
How it was run: as §1

[26] = target: Gal(b1-3)GlcNAc(b1-3)Gal(b1-4)GlcNAc(b1-2)[Gal(b1-3)GlcNAc(b1-3)Gal(b1-4)GlcNAc(b1-6)]Man(a1-6)[Gal(b1-3)GlcNAc(b1-3)Gal(b1-4)GlcNAc(b1-2)Man(a1-3)]Man(b1-4)GlcNAc(b1-4)[Fuc(a1-6)]GlcNAc
How it was run: as §1

[27] = target: Gal(b1-3)GlcNAc(b1-3)Gal(b1-4)GlcNAc(b1-3)Gal(b1-4)GlcNAc(b1-2)[Gal(b1-3)GlcNAc(b1-3)Gal(b1-4)GlcNAc(b1-3)Gal(b1-4)GlcNAc(b1-6)]Man(a1-6)[Gal(b1-3)GlcNAc(b1-3)Gal(b1-4)GlcNAc(b1-3)Gal(b1-4)GlcNAc(b1-2)Man(a1-3)]Man(b1-4)GlcNAc(b1-4)[Fuc(a1-6)]GlcNAc
How it was run: as §1

[28] = target: Gal(b1-3)GlcNAc(b1-3)Gal(b1-4)GlcNAc(b1-6)[Gal(b1-3)GlcNAc(b1-3)]Gal(b1-4)Glc
How it was run: as §1

[29] = target: Gal(b1-3)GlcNAc(b1-3)Gal(b1-4)[Fuc(a1-3)]GlcNAc
How it was run: as §1

[30] = target: Gal(b1-3)GlcNAc(b1-3)Gal(b1-4)[Fuc(a1-3)]GlcNAc(b1-6)[Gal(b1-3)GlcNAc(b1-3)]Gal(b1-4)Glc
How it was run: as §1

[31] = target: Gal(b1-3)GlcNAc(b1-3)GalNAc
How it was run: as §1

[32] = target: Gal(b1-3)GlcNAc(b1-6)Gal(b1-4)GlcNAc
How it was run: as §1

B1: CFEM-PPm (Pichia pastoris), F2QPV1 (protein)
chain: AVATPPACLLACAAEVVKESSDCDALNNIQCICENEGSAIHACLESTCPDGLSSTALQSFEDVCE
In the case of B1, the “glycan array binding signal (z-score)” value (Gal(a1-3)Gal(b1-4)GlcNAc) is reported as -0.146, the “glycan array binding signal (z-score)” value [1] is reported as -0.269 and the “glycan array binding signal (z-score)” value [2] is reported as -0.204. The “glycan array binding signal (z-score)” value [3] was -0.284, the “glycan array binding signal (z-score)” value [4] was -0.423 and the “glycan array binding signal (z-score)” value [5] was -0.203. For the same binder, the “glycan array binding signal (z-score)” value [6] was -0.051, the “glycan array binding signal (z-score)” value (Gal(a1-3)GalNAc) was -0.238 and the “glycan array binding signal (z-score)” value [7] was -0.042. For the same binder, the “glycan array binding signal (z-score)” value [8] was -0.319, the “glycan array binding signal (z-score)” value (Gal(a1-4)Gal(b1-4)Glc) was 0.197 and the “glycan array binding signal (z-score)” value (Gal(a1-4)Gal(b1-4)GlcNAc) was 0.007. The “glycan array binding signal (z-score)” value [9] was -0.132, the “glycan array binding signal (z-score)” value [10] was -0.44 and the “glycan array binding signal (z-score)” value (Gal(a1-4)GlcNAc) was 0.31. The “glycan array binding signal (z-score)” value (Gal(a1-6)Glc) was -0.096, the “glycan array binding signal (z-score)” value (Gal(b1-2)Gal) was -0.182 and the “glycan array binding signal (z-score)” value (Gal(b1-3)Gal) was 5.41. The “glycan array binding signal (z-score)” value (Gal(b1-3)Gal(b1-4)GlcNAc) was 6.22, the “glycan array binding signal (z-score)” value (Gal(b1-3)GalNAc) was 3.57 and the “glycan array binding signal (z-score)” value [11] was 0.271. The “glycan array binding signal (z-score)” value [12] was 0.224, the “glycan array binding signal (z-score)” value (Gal(b1-3)GalNAc(b1-3)Gal) was 5.7 and the “glycan array binding signal (z-score)” value [13] was 0.31. For the same binder, the “glycan array binding signal (z-score)” value [14] was 14.7, the “glycan array binding signal (z-score)” value [15] was 1.41 and the “glycan array binding signal (z-score)” value (Gal(b1-3)GlcNAc) was -0.226. The “glycan array binding signal (z-score)” value [16] was 1.35, the “glycan array binding signal (z-score)” value [17] was 0.053 and the “glycan array binding signal (z-score)” value (Gal(b1-3)GlcNAc(b1-2)Man) was 0.152. For the same binder, the “glycan array binding signal (z-score)” value [18] was 0.199, the “glycan array binding signal (z-score)” value [19] was -0.248 and the “glycan array binding signal (z-score)” value [20] was -0.033. The “glycan array binding signal (z-score)” value [21] was -0.203, the “glycan array binding signal (z-score)” value [22] was -0.096 and the “glycan array binding signal (z-score)” value [23] was -0.32. For the same binder, the “glycan array binding signal (z-score)” value [24] was -0.447, the “glycan array binding signal (z-score)” value [25] was -0.305 and the “glycan array binding signal (z-score)” value [26] was 0.082. For the same binder, the “glycan array binding signal (z-score)” value [27] was 0.301, the “glycan array binding signal (z-score)” value [28] was -0.017 and the “glycan array binding signal (z-score)” value [29] was -0.126. For the same binder, the “glycan array binding signal (z-score)” value [30] was 0.036, the “glycan array binding signal (z-score)” value [31] was -0.286 and the “glycan array binding signal (z-score)” value [32] was -0.102.
